# Measurements reported in the supplement of paper PMC8728848.
# This is one part of the list.
# Assays:
# Assay in all cases: glycan array binding signal (z-score within array); higher = stronger binding
# Conditions in all cases: glycan notation: IUPAC condensed, linker removed
# [1] = target: Kdn(a2-3)Gal(b1-4)[Fuc(a1-3)]GlcNAc
# Procedure, shortened: (§1)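 Columns mapping to the same glycan were averaged after glycan names were converted to IUPAC-condensed notation. The data come from 3228 arrays in the Consortium for Functional Glycomics database, limited to those with an available protein sequence. Binding is reported as a within-array Z-score averaged across arrays of one protein sequence and across linkers.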
# Kdn(a2-6)Gal(b1-4)GlcNAc = target: Kdn(a2-6)Gal(b1-4)GlcNAc
# Procedure, shortened: as §1
# [2] = target: Man(a1-2)Man(a1-2)Man(a1-3)Man
# Procedure, shortened: as §1
# [3] = target: Man(a1-2)Man(a1-2)Man(a1-6)[Man(a1-3)]Man
# Procedure, shortened: as §1
# Man(a1-2)Man(a1-3)Man = target: Man(a1-2)Man(a1-3)Man
# Procedure, shortened: as §1
# [4] = target: Man(a1-2)Man(a1-3)[Man(a1-2)Man(a1-6)]Man
# Procedure, shortened: as §1
# [5] = target: Man(a1-2)Man(a1-3)[Man(a1-2)Man(a1-6)]Man(a1-6)[Man(a1-2)Man(a1-2)Man(a1-3)]Man
# Procedure, shortened: as §1
# [6] = target: Man(a1-2)Man(a1-3)[Man(a1-2)Man(a1-6)]Man(a1-6)[Man(a1-2)Man(a1-2)Man(a1-3)]Man(b1-4)GlcNAc(b1-4)GlcNAc
# Procedure, shortened: as §1
# [7] = target: Man(a1-2)Man(a1-3)[Man(a1-6)]Man(a1-6)[Man(a1-2)Man(a1-3)]Man(b1-4)GlcNAc(b1-4)GlcNAc
# Procedure, shortened: as §1
# [8] = target: Man(a1-2)Man(a1-6)[Man(a1-3)]Man(a1-6)[Man(a1-2)Man(a1-2)Man(a1-3)]Man
# Procedure, shortened: as §1
# [9] = target: Man(a1-2)Man(a1-6)[Man(a1-3)]Man(a1-6)[Man(a1-2)Man(a1-2)Man(a1-3)]Man(b1-4)GlcNAc(b1-4)GlcNAc
# Procedure, shortened: as §1
# Man(a1-3)[Man(a1-6)]Man = target: Man(a1-3)[Man(a1-6)]Man
# Procedure, shortened: as §1
# [10] = target: Man(a1-3)[Man(a1-6)]Man(a1-6)[Man(a1-2)Man(a1-3)]Man(b1-4)GlcNAc(b1-4)GlcNAc
# Procedure, shortened: as §1
# [11] = target: Man(a1-3)[Man(a1-6)]Man(a1-6)[Man(a1-3)]Man
# Procedure, shortened: as §1
# [12] = target: Man(a1-3)[Man(a1-6)]Man(a1-6)[Man(a1-3)]Man(b1-4)GlcNAc(b1-4)GlcNAc
# Procedure, shortened: as §1
# [13] = target: Man(a1-3)[Man(a1-6)]Man(b1-4)GlcNAc(b1-4)GlcNAc
# Procedure, shortened: as §1
# Man(a1-6)Man = target: Man(a1-6)Man
# Procedure, shortened: as §1
# Man(b1-4)GlcNAc = target: Man(b1-4)GlcNAc
# Procedure, shortened: as §1
# Neu5Ac(a2-3)Gal = target: Neu5Ac(a2-3)Gal
# Procedure, shortened: as §1
# [14] = target: Neu5Ac(a2-3)Gal(b1-3)GalNAc
# Procedure, shortened: as §1
# [15] = target: Neu5Ac(a2-3)Gal(b1-3)GalNAc(b1-3)Gal(a1-4)Gal(b1-4)Glc
# Procedure, shortened: as §1
# [16] = target: Neu5Ac(a2-3)Gal(b1-3)GalNAc(b1-4)[Neu5Ac(a2-3)]Gal(b1-4)Glc
# Procedure, shortened: as §1
# [17] = target: Neu5Ac(a2-3)Gal(b1-3)GalNAc6S
# Procedure, shortened: as §1
# [18] = target: Neu5Ac(a2-3)Gal(b1-3)GlcNAc
# Procedure, shortened: as §1
# [19] = target: Neu5Ac(a2-3)Gal(b1-3)GlcNAc(b1-2)Man(a1-3)[Neu5Ac(a2-3)Gal(b1-3)GlcNAc(b1-2)Man(a1-6)]Man(b1-4)GlcNAc(b1-4)GlcNAc
# Procedure, shortened: as §1
# [20] = target: Neu5Ac(a2-3)Gal(b1-3)GlcNAc(b1-3)Gal(b1-3)GlcNAc
# Procedure, shortened: as §1
# [21] = target: Neu5Ac(a2-3)Gal(b1-3)GlcNAc(b1-3)Gal(b1-4)GlcNAc
# Procedure, shortened: as §1
# [22] = target: Neu5Ac(a2-3)Gal(b1-3)GlcNAc(b1-3)GalNAc
# Procedure, shortened: as §1
# [23] = target: Neu5Ac(a2-3)Gal(b1-3)GlcNAc6S
# Procedure, shortened: as §1
# [24] = target: Neu5Ac(a2-3)Gal(b1-3)[Fuc(a1-4)]GlcNAc
# Procedure, shortened: as §1
# [25] = target: Neu5Ac(a2-3)Gal(b1-3)[Fuc(a1-4)]GlcNAc(b1-3)Gal(b1-3)[Fuc(a1-4)]GlcNAc
# Procedure, shortened: as §1
# [26] = target: Neu5Ac(a2-3)Gal(b1-3)[Fuc(a1-4)]GlcNAc(b1-3)Gal(b1-4)[Fuc(a1-3)]GlcNAc
# Procedure, shortened: as §1
# [27] = target: Neu5Ac(a2-3)Gal(b1-3)[Neu5Ac(a2-3)Gal(b1-4)]GlcNAc
# Procedure, shortened: as §1
# [28] = target: Neu5Ac(a2-3)Gal(b1-3)[Neu5Ac(a2-6)]GalNAc
# Procedure, shortened: as §1
# Neu5Ac(a2-3)Gal(b1-4)Glc = target: Neu5Ac(a2-3)Gal(b1-4)Glc
# Procedure, shortened: as §1
binder,measurement,setting,value
"Ecp6 (Cladosporium fulvum), B3VBK9 (protein) MQSMILFAAALMGAAVNGFVLPRTDDPDCETKATDCGSTSNIKYTVVKGDTLTSIAKKFKSGICNIVSVNKLANPNLIELGATLIIPENCSNPDNKSCVSTPAEPTETCVPGLPGSYTIVSGDTLTNISQDFNITLDSLIAANTQIENPDAIDVGQIITVPVCPSSQCEAVGTYNIVAGDLFVDLAATYHTTIGQIKALNNNVNPSKLKVGQQIILPQDCKNVTTAVA",glycan array binding signal (z-score),[1],-0.069
same,glycan array binding signal (z-score),Kdn(a2-6)Gal(b1-4)GlcNAc,-0.079
same,glycan array binding signal (z-score),[2],-0.067
same,glycan array binding signal (z-score),[3],-0.105
same,glycan array binding signal (z-score),Man(a1-2)Man(a1-3)Man,-0.058
same,glycan array binding signal (z-score),[4],-0.083
same,glycan array binding signal (z-score),[5],-0.096
same,glycan array binding signal (z-score),[6],-0.09
same,glycan array binding signal (z-score),[7],-0.07
same,glycan array binding signal (z-score),[8],-0.085
same,glycan array binding signal (z-score),[9],-0.11
same,glycan array binding signal (z-score),Man(a1-3)[Man(a1-6)]Man,-0.085
same,glycan array binding signal (z-score),[10],-0.059
same,glycan array binding signal (z-score),[11],-0.103
same,glycan array binding signal (z-score),[12],-0.108
same,glycan array binding signal (z-score),[13],-0.085
same,glycan array binding signal (z-score),Man(a1-6)Man,-0.091
same,glycan array binding signal (z-score),Man(b1-4)GlcNAc,-0.085
same,glycan array binding signal (z-score),Neu5Ac(a2-3)Gal,-0.077
same,glycan array binding signal (z-score),[14],-0.099
same,glycan array binding signal (z-score),[15],-0.057
same,glycan array binding signal (z-score),[16],-0.083
same,glycan array binding signal (z-score),[17],-0.082
same,glycan array binding signal (z-score),[18],-0.095
same,glycan array binding signal (z-score),[19],-0.105
same,glycan array binding signal (z-score),[20],-0.095
same,glycan array binding signal (z-score),[21],-0.097
same,glycan array binding signal (z-score),[22],-0.121
same,glycan array binding signal (z-score),[23],-0.094
same,glycan array binding signal (z-score),[24],-0.09
same,glycan array binding signal (z-score),[25],-0.066
same,glycan array binding signal (z-score),[26],-0.067
same,glycan array binding signal (z-score),[27],-0.091
same,glycan array binding signal (z-score),[28],-0.083
same,glycan array binding signal (z-score),Neu5Ac(a2-3)Gal(b1-4)Glc,-0.097
